Assay results from article PMC4336329 (PLoS ONE, 2015).
Out of some 310,000 compounds screened, about 2,200 (0.71%) showed an effect of 50% or more. The effect is printed as a negative number. This is one part of the list.

The molecules below were run against human ether-à-go-go-related gene (hERG) potassium channel (human, UniProt Q12809) (assay: primary screen, population patch clamp on CHO cells stably expressing hERG).
Sequence of human ether-à-go-go-related gene (hERG) potassium channel (Q12809 whole entry, looked up): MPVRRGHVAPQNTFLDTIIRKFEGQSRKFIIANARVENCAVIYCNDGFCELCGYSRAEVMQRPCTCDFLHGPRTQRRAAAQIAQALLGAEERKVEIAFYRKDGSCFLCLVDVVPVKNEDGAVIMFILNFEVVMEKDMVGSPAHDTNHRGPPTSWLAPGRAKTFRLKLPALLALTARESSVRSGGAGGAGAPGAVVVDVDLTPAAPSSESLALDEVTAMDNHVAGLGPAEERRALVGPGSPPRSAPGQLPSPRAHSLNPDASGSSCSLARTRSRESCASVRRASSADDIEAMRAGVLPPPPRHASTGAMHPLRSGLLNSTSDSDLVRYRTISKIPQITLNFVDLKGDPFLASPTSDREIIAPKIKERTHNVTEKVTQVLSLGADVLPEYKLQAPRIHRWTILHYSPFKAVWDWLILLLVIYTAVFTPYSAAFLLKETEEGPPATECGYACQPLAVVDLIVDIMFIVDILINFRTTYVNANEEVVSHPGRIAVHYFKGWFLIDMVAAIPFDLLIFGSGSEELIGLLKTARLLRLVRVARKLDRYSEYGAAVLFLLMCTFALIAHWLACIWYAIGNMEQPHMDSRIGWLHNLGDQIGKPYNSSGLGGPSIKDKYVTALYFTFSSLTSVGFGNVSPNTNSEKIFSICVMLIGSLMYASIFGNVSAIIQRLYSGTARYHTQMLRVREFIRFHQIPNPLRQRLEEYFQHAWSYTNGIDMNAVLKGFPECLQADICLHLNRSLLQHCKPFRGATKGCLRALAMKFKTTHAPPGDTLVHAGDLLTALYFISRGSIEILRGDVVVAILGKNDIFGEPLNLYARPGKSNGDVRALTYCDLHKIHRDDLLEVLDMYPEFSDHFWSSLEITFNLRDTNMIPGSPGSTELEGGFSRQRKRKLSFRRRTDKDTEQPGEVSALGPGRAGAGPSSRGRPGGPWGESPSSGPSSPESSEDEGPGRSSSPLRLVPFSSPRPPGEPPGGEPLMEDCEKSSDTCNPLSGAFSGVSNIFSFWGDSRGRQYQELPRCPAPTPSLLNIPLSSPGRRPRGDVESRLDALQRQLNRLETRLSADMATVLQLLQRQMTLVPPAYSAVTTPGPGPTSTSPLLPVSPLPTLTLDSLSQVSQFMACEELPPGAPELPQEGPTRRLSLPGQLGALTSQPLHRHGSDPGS

SMILES	hERG current change (%, negative = inhibition) at 1uM [%]
COc1ccc(/C=C/C(=O)N(c2ccccn2)C2CCCCC2)cc1OC	14.7
Cc1ccc(CNC(=O)CSCC(=O)O)cc1	18.1
COc1cc2[nH]c(Cl)c([N+](=O)[O-])c2cc1OC	7.59
N#Cc1cc(-c2ccccc2)nnc1Sc1ccc(F)cc1	17.6
Cc1ccc(-c2nn(-c3ccc(F)cc3)cc2C(=O)N2CCN(C3CCS(=O)(=O)C3)CC2)cc1 (centres unmarked)	-24.2
CCn1c(=O)c2ccccc2n(Cc2ccc([N+](=O)[O-])cc2)c1=O	-22.8
CCC(C)NC(=O)c1ccccc1NC(=O)CN1C(=O)c2ccccc2S1(=O)=O (centres unmarked)	-8.07
COc1ccc(N2CCN(C(=O)c3c(-c4ccccc4)noc3C)CC2)cc1	0.836
CCc1cccc(NC(=O)CCCN2C(=O)C(c3ccccc3)Oc3cccnc32)c1 (centres unmarked)	13
O=C1C(=Cc2cccn2-c2ccccc2)C(=O)c2ccccc21	15.2
COc1ccc(COCC(O)CN2CCCCC2)cc1OC.Cl (centres unmarked)	12.7
O=C(CNC(=O)c1cccc(N2C(=O)c3ccccc3C2=O)c1)Nc1ccc(F)c(F)c1	13
O=C(Nc1ccc(/C=C/c2nc3ccccc3o2)cc1)c1cccc(C(F)(F)F)c1	3.58
Fc1cccc(NC(=S)N2CCCCC2)c1	9.56
COC(=O)c1ccc(COC(=O)c2ccc(-n3cnnn3)cc2)o1	3.73
CC(=O)c1sc(NC(=O)c2ccc(F)cc2)nc1-c1ccccc1	5.22
O=C(CN1CCOc2ccccc21)NCc1ccc(F)cc1	-4.24
CCCCn1c(O)c(/C(C)=N/NC(=O)Nc2ccccc2)c(=O)[nH]c1=O	9.15
CCOC(=O)CSc1n[nH]c(NC(=O)NC(C)C)n1	12

SMILES	hERG current change (%, negative = inhibition) at 1uM [%]
O=C(NC12CC3CC(CC(C3)C1)C2)N1CCN(S(=O)(=O)c2ccc(Cl)cc2)CC1	7.35
O=C(N/C(=C\c1cccc([N+](=O)[O-])c1)C(=O)N1CCOCC1)c1cccc(Br)c1	7.37
CC(=O)Oc1cc2oc(=O)c3c(c2cc1Cl)CCC3	11.1
O=C(c1sc2ccccc2c1Cl)N1CCC2(CC1)OCCO2	6.63
Oc1ccc(Nc2nc(-c3ccccc3)nc3ccccc23)cc1	4.13
O=C(/C=C/c1ccc(F)cc1)NCCc1ccc2c(c1)OCCO2	-1.76
Cc1c(C(=O)N2CCN(S(=O)(=O)c3ccc(F)cc3)CC2)oc2ccccc12	4.19
CN1CCN(c2ccccc2NC(=O)c2ccc(Br)o2)CC1	-46.2
COc1cc(/C=N\NC(=O)c2ccccc2F)ccc1Oc1ccc([N+](=O)[O-])cn1	1.66
CCOc1ccc(/C=C2\SC(=S)N(CCC(=O)O)C2=O)cc1	8.54
CN(C)S(=O)(=O)c1ccc(Cl)c(NC(=O)COC(=O)C2CCCO2)c1 (centres unmarked)	12.3
Br.COc1ccc(/C=N/N(C)C2=NCCN2)c(OC)c1OC	12.2
CCC(=O)Nc1cccc(NC(=O)CSc2nnc(C3CC3)n2C)c1	4.98
Cc1nnc(SCc2c(Cl)cccc2Cl)s1	11.4
COc1ccc(C(C(=O)NCC2CCCO2)N(C(=O)CNC(=O)c2ccco2)c2ccc(C)c(C)c2)cc1OC (centres unmarked)	10.1
O=C(COc1ccc(F)cc1)N1c2ccccc2CCc2ccccc21	26.4
NC1=NC[C@H](c2ccccc2)N1CCCCC1CCCCC1	4.72
COc1cc(OC)cc(-c2nnc(SCc3cccc(C(=O)O)c3)o2)c1	10
COc1ccc(/C=C(\C#N)C(=O)NCc2ccccc2)cc1O	1.53

SMILES	hERG current change (%, negative = inhibition) at 1uM [%]
O=C(CCOc1ccccc1)Nc1ccnn1C1CCN(Cc2ccccc2)CC1	2
O=C(Cn1cnc2ccccc2c1=O)NCCC(=O)Nc1ccc2c(c1)OCCO2	9.75
Cc1ccc(OCC(=O)NCC(=O)n2nc(C)cc2C)cc1	8.5
COc1ccc(Nc2c(-c3ccco3)nc3cccc(C)n23)cc1	-0.306
O=C(NC1CCN(C(=S)NCc2ccco2)CC1)c1cccc(F)c1	-1.23
Cc1cc(-c2ccccc2)c2nncn2n1	18.5
COC(=O)c1ccc(NC(=S)NNC(=O)CC(C)C)cc1	7.15
O=C(Nc1cc(S(=O)(=O)N2CCOCC2)ccc1O)c1ccc2c(c1)S(=O)(=O)c1ccccc1C2=O	20.6
COC(=O)c1ccccc1OCC(=O)N1CCN(c2ccc(OC)cc2)CC1	12.2
O=C(NCc1ccccc1)c1ccc(=O)[nH]n1	6.79
Cc1ccc(N/C=C(/C#N)c2ccsc2)cc1C	11.4
CN(CC1COc2ccccc2O1)C(=O)c1cccc(S(=O)(=O)N2CCCC2)c1 (centres unmarked)	2.35
COc1ccc(NC(=O)CCCn2c(=O)c3sccc3n(Cc3ccc(C)cc3)c2=O)cc1	-2.63
CN(C)S(=O)(=O)n1ccnc1	5.54
CN(C(=O)c1ccccc1C(=O)OCC(=O)Nc1ccc(S(N)(=O)=O)cc1)c1ccccc1	10.3
Cc1ccc(S(=O)(=O)Nc2cccc(C(=O)NCc3cccnc3)c2)cc1F	20.4
Cc1ccc(CNC(=O)COC(=O)CCCOc2ccc(Cl)cc2Cl)cc1	19.4
O=C(NNC(=O)c1cc(-c2ccccc2)nn1-c1ccccc1)c1ccccc1	1.49
